# Screen size: about 48,000 compounds; about 120 (0.25%) were called active. Another 4% or so got no clear call; they are omitted. Calls follow the shape of the dose curve; as a rule, active = well fitted activation curve with a large enough effect; inconclusive = small, poorly fitted or top-dose-only effect, or another doubt; inactive = no such curve, though single readings can be large or run the other way. The list shows a part of the results.
# Experiment: Primary qHTS for Identification of Small Molecule Activators of Huntingtin-Antisense Promoter Activity; also: nearly all actives have a fitted effect of over 55% in size
# Conditions: HEK293 HTT-AS promoter firefly luciferase reporter, 24 h; series mostly up to 57.5 µM; activity change, positive = activation: at the top concentration
# How it was run: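 Luminescence was read after Dual-Glo reagent and a 10 min room-temperature incubation. Values were normalized to vehicle (0% activity) and zero RLU (-100% activity). Reporter HEK293 cells had been exposed to compounds (up to 57.5 uM final) for 24 h.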
row,Compound,"activity change, positive = activation"
1,O=C(Nc1ccc(N2CCC(N3CCCCC3)CC2)c(C(=O)O)c1)c1ccccc1,inactive: 17.8%
2,CNS(=O)(=O)c1cn(CC(=O)N2CCN(c3ccc(OC)cc3)CC2)cc1S(=O)(=O)NC,inactive: -4.97%
3,COc1cccc(CNC(=O)CN2C(=O)CSc3ccc(S(=O)(=O)N(C)C)cc32)c1,inactive: 4.78%
4,Cc1ccc(-c2nc3sccn3c2Nc2ccccc2C)cc1,inactive: -4.22%
5,CC1CCN(C(=O)c2cnn(-c3ccc(Cl)cc3)c2C2CCN(C(=O)OC(C)(C)C)CC2)CC1,inactive: -11.2%
6,Cc1c(C(=O)OC2CCCC2)[nH]c2c1C(=O)CC(c1ccc(C(C)(C)C)cc1)C2 (configuration not stated),inactive: 1.9%
7,CC(C)(C)C1CCc2c(sc(NC(=O)c3cccc(Cl)c3)c2C(N)=O)C1 (configuration not stated),inactive: -15.7%
8,CSCCC(NS(=O)(=O)c1ccc2c(c1)oc(=O)n2C)C(=O)N1CCN(c2cc(Cl)ccc2C)CC1 (configuration not stated),inactive: -29.4%
9,CCC(=O)Oc1c(Sc2ccc(Cl)cc2)c(C)nn1C(C)(C)C,inactive: -29%
10,COc1ccc(NC(=O)CSc2oc(-c3ccc(C)cc3)nc2S(=O)(=O)c2ccc(C)cc2)c(OC)c1,inactive: -5.78%
11,CCN(CCCNC(=O)c1cc2cc3cc(OC)ccc3nc2s1)c1cccc(C)c1,inactive: 1.66%
12,Cc1cc2c(cc3c(SCc4ccc(Cl)cc4)nnc(C)n32)o1,inactive: -6.1%
13,Cc1cccc(N2CCN(C(=O)c3nn(C)c4c3CSc3ccccc3-4)CC2C)c1 (configuration not stated),inactive: -10.3%
14,COC(=O)c1ccccc1NC(=O)c1cc2nc(-c3ccccc3)cc(-c3ccccc3)n2n1,inactive: -2.24%
15,Cc1ccccc1C(=O)NCC(c1cccnc1)N1CCc2ccccc21 (configuration not stated),inactive: -16.8%
16,CCOC(=O)c1c(C)sc(-c2c(-c3ccc4c(c3)OCCO4)[nH]c3c2c(=O)[nH]c(=O)n3C)c1O,inactive: -35.8%
17,COc1ccc(NC(=O)C2(c3cccs3)CCOCC2)cc1Cl,inactive: -18.6%
18,COc1cccc(N2CCN(C(=O)c3c(C)oc4ncnc(N5CCCCC5)c34)CC2)c1,inactive: -29.3%
19,COC(=O)CCCCC(CCSS/C(CCO)=C(\C)N(C=O)Cc1cnc(C)nc1N)SC(C)=O (configuration not stated),inactive: -3.75%

row,Compound,"activity change, positive = activation"
1,Cc1ccc(-c2nnc(Nc3ccc(O)cc3)c3ccccc23)cc1S(=O)(=O)NCc1nc2ccccc2[nH]1,"inactive: 11.8% [at 11.5 µM, percent change from vehicle, -100% = no light]"
2,COc1cccc(-n2c(=O)c3sc4ccccc4c3n(CC(=O)Nc3ccc(F)cc3F)c2=O)c1,inactive: -15.6%
3,CC(C)CN(CCCNC(=O)CN1C(=O)COc2ccc(S(=O)(=O)N3CCCCCC3)cc21)CC(C)C,inactive: -9.88%
4,O=C1CC(=O)Nc2cc(S(=O)(=O)N3CCOc4ccccc43)ccc2N1,inactive: -4.59%
5,COc1cc(NC(=O)CSc2nc(C)c(C(=O)Nc3ccccc3)c(-c3ccc(OC)c(OC)c3)c2C#N)c(OC)cc1Cl,inactive: 0%
6,Cc1cc(Nc2sc(C(=O)c3ccc(F)cc3)c(N)c2C(=O)Nc2ccc(F)cc2)ccc1Cl,inactive: -18.6%
7,COc1ccc(N2CC3=C(C2=O)C(c2ccc(Br)cc2)NC(=O)N3C)cc1 (configuration not stated),inactive: -34.8%
8,Cc1ccc(Cl)cc1N1CCN(CCCNc2ncnc3onc(-c4ccc(F)cc4)c23)CC1,inactive: -18%
9,CC(C)NC(=O)c1ccc(Cn2c(=O)c3cccn3c3cccnc32)cc1,inactive: -10.4%
10,COc1ccc(CC(=O)NC2CC(=O)N(c3ccc4c(c3)OCCO4)C2)cc1 (configuration not stated),inactive: -5.61%
11,Nc1c(C(=O)Nc2cccc(Cl)c2)sc2nc3c(cc12)CN(Cc1ccccc1)CC3,inactive: 0.535%
12,CCOCCCn1c(=N)c(S(=O)(=O)c2ccc(C)cc2)cc2c(=O)n3ccccc3nc21,inactive: -4.27%
13,CCOC(=O)c1c(NC(=O)C(C)Sc2cn(CCNC(=O)c3ccc(OC)c(OC)c3)c3ccccc23)sc2c1CCC2 (configuration not stated),inactive: -22.4%
14,O=C(CSc1nncn2c1cc1sccc12)Nc1ccccc1C(F)(F)F,inactive: -37.2%
15,O=C(NCCC1=CCCCC1)c1ccc2c(c1)N(Cc1ccc(F)cc1)C(=O)c1ccccc1S2(=O)=O,inactive: -17.1%
16,COc1ccc2nc3sc(C(=O)Nc4cc(Cl)c(OC)cc4OC)cc3cc2c1,inactive: 3.14%
17,CCOC(=O)c1c(C)oc2nc(C)nc(NCc3ccc(C)cc3)c12,inactive: -10%
18,CCN1CCN(Cc2c(O)ccc3c(=O)c(Oc4ccccc4Cl)c(C(F)(F)F)oc23)CC1,inactive: -11%
19,CO[C@]1(NC(=O)CSC(F)F)C(=O)N2C(C(=O)O)=C(CSc3nnnn3CCO)CO[C@H]21,inactive: -5.66%

row,Compound,"activity change, positive = activation"
1,COCCCNc1nc2c(-c3ccccc3)nnn2c2ccccc12,inactive: -9.21%
2,Cc1cc(C)cc(NC(=O)CCc2nnc3n(CC(C)C)c(=O)c4ccccc4n23)c1,inactive: -3.52%
3,O=C1NC(=O)C(c2cnc3ccccn23)=C1c1cn2c3c(cccc13)CN(C(=O)N1CCOCC1)CC2,inactive: -18.9%
4,CC(C)N(Cc1ccccc1)C(=O)CN1C(=O)COc2ccc(S(=O)(=O)NC3CCCC3)cc21,inactive: -19.3%
5,Nc1cccc2c1CN(C1CCC(=O)NC1=O)C2=O (configuration not stated),inactive
6,Cc1ccc(NC(=O)CSc2nc3nccnc3c(=O)n2CCc2c[nH]c3ccccc23)cc1,inactive: -27.1%
7,CCOC(=O)c1ccc(OCCN2C[C@H](O)[C@@H](O)[C@H](O)[C@H]2CO)cc1,inactive: -1.54%
8,COc1cc(CNc2ccc3[nH]c(=O)[nH]c3c2)ccc1OCc1ccccc1F,inactive: 2.53%
9,CCN(C(=O)CSc1nc2ccccc2n1CC(=O)Nc1ccccc1C)c1ccccc1,inactive: -7.55%
10,COc1ccc(-n2ccn(Cc3ccccc3Cl)c(=O)c2=O)cc1OC,inactive: -4.39%
11,CCN(CC)S(=O)(=O)c1ccc(NC(=O)CCc2c(C)nc3cc(-c4ccc(Cl)cc4)nn3c2C)cc1,inactive: -89%
12,CN(C)c1ccc(C(CNS(=O)(=O)c2ccc(Br)cc2)N2CCCC2)cc1 (configuration not stated),inactive: -14.4%
13,COc1ccc(Cl)cc1NC(=O)CSc1ccc(-c2sc(C)nc2C)nn1,inactive: -29%
14,CC(C)Cc1nn2c(=O)cc(COC(=O)c3ccc4c(c3)OCO4)nc2s1,inactive: 1.19%
15,CCOC(=O)c1cc2c(=O)n3ccccc3nc2n(CCCOC)c1=NC(=O)C(C)(C)Oc1ccc(Cl)cc1,inactive: 14.5%
16,CCOC(=O)c1c(C)[nH]c(CCC(=O)NCCCN2CCN(c3cc(C)ccc3C)CC2)c1C,inactive: -40.7%
17,COc1ccccc1CNC(=O)CN1C(=O)CSc2ccc(S(=O)(=O)N(C)C)cc21,inactive: 6.36%
18,CCOc1ccc(S(=O)(=O)N2CCN(c3ccc(Cl)c(Cl)c3)CC2)c2ccccc12,inactive: -1.48%
19,Cc1ccc(C)c(NC(=O)CSc2ncc3c(n2)-c2ccc(Cl)cc2N(C)S3(=O)=O)c1,inactive: -3.31%

# — PubChem BioAssay AID1508624 (National Center for Advancing Translational Sciences (NCATS), 2021)
